The supplement of paper PMC10320760
This is a noisy data set.

B1: Ydj1; a variant is named by its letters at X, in order (parent)
chain: MVKETKFYDILGVPVTATDVEIKKAYRKCALKYHPDKNPSEEAAEKFKEASAAYEILSDPEKRDIYDQFGEDGLSGAGGAGGFPGGGFGFGDDIFSQFFGAGGAQRPRGPQRGKDIKHEISASLEELYKGRTAKLALNKQILCKECEGRGGKKGAVKKCTSCNGQGIKFVTRQMGPMIQRFQTECDVCHGTGDIIDPKDRCKSCNGKKVENERKILEVHVEPGMKDGQRIVFKGEADQAPDVIPGDVVFIVSERPHKSFKRDGDDLVYEAEIDLLTAIAGGEFALEHVSGDWLKVGIVPGEVIAPGMRKVIEGKGMPIPKYGGYGNLIIKFTIKFPENHFTSEENLKKLEEILPPRIVPAIPKKATVDECVLADFDPAKYNRTRASRGGANYDSDEEEQGGEGVQCXXX

Variants of: B1
Assay: enrichment factor, frequency at 37 °C / frequency at 25 °C (thermotolerance selection) (ratio); higher = more growth at 37 °C, higher likelihood of farnesylation
Settings: with Saccharomyces cerevisiae ydj1Δ (yWS304); selective temperature 37 °C; reference temperature 25 °C
Experimental: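 Pooled library of all 8,000 Ydj1-CXXX C-terminal motif variants (native CASQ replaced by C + three variable residues, one codon per amino acid) expressed from a CEN plasmid in S. cerevisiae ydj1Δ (yWS304). The library was grown in SC-Ura liquid to A600 ~2 (~8 generations) at permissive 25 °C or selective 37 °C. Reads from 8 and 7 replicates were pooled and variants counted by NGS. Enrichment factor = frequency at 37 °C / frequency at 25 °C, with a +1 correction; it reports Ydj1-dependent thermotolerance, used as a read-out of farnesylation by yeast FTase.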

Variant	enrichment factor
SDW	0.195
SDY	0.157
QDY	0.146
QDW	0.173
VEE	0.257
VEI	0.479
VEL	0.338
VEC	1.59
VEH	1.64
VED	0.144
VEK	0.201
VEG	0.287
VEP	0.0879
VEQ	1.37
VEA	1.44
VER	0.163
VEF	1.17
VEM	2
VEN	1.07
GDY	0.139
ADY	0.181
ADW	0.232
IDY	0.191
RDY	0.118

Variant	enrichment factor
RDW	0.0894
TEF	1.08
TEN	0.303
TEH	0.386
TEG	0.209
TEQ	1.5
TEA	0.683
TEP	0.215
TEI	0.251
TER	0.11
TEL	0.17
TEC	1.38
TEK	0.137
TED	0.134
TEE	0.395
TEM	1.67
WEH	0.899
WEI	2.07
WER	0.238
WEQ	1.9
WEN	1.16
WEA	1.59
WEL	1.73
WEF	1.65

Variant	enrichment factor
WEM	1.29
WEE	0.744
WEG	1.83
WED	0.255
WEK	0.336
WEP	1.42
WEC	1.15
NEK	0.222
NEI	0.121
NEC	0.876
NEA	0.212
NEP	0.152
NEM	1.9
NER	0.157
NEH	0.204
NED	0.151
NEQ	1.69
NEL	0.382
NEF	0.494
NEG	0.12
NEN	0.127
NEE	0.0983
PDW	0.186
PDY	0.184

Variant	enrichment factor
KDY	0.139
SEQ	1.29
SED	0.195
SEM	2.06
SER	0.0677
SEN	0.134
SEE	0.165
SEH	0.11
SEC	0.939
SEK	0.112
SEI	0.141
SEF	0.436
SEG	0.148
SEA	0.361
SEP	0.156
SEL	0.165
PEE	0.108
PEM	1.77
PEN	0.197
PEP	0.227
PEK	0.0991
PEC	0.816
PER	0.107
PEH	0.246

Variant	enrichment factor
PEI	0.124
PEQ	1.91
PED	0.167
PEL	0.192
PEG	0.219
PEA	0.399
PEF	0.445
EDY	0.139
GED	0.14
GEM	1.25
GEN	0.0983
GEC	0.2
GEQ	1.47
GER	0.24
GEH	0.173
GES	0.157
GEK	0.162
GEP	0.149
GEA	0.101
GEL	0.27
GEE	0.171
GEG	0.243
GEI	0.192
GEF	0.274

Variant	enrichment factor
MEI	0.167
MEP	0.096
MEM	1.97
MEQ	1.67
MEL	0.165
MEH	0.224
MER	0.135
MEN	0.291
MEF	0.373
MED	0.14
MEC	1.23
MEK	0.108
MEG	0.225
MEE	0.145
MEA	0.517
EEP	0.132
EEL	0.129
EEK	0.16
EEA	0.273
EER	0.228
EED	0.151
EEM	1.29
EEI	0.191
EEG	0.143

Variant	enrichment factor
EEN	0.222
EEC	0.411
EEF	0.526
EEE	0.122
EES	0.296
EEH	0.217
EEQ	1.42
DEA	0.191
DEP	0.106
DEN	0.16
DEF	0.154
DEH	0.152
DEI	0.255
DEE	0.213
DEL	0.158
DED	0.135
DEG	0.103
DEC	0.181
DEK	0.165
DEM	0.2
DER	0.254
DEQ	0.312
KED	0.158
KEN	0.153

Variant	enrichment factor
KEI	0.201
KEF	0.418
KEP	0.203
KEH	0.141
KEA	0.442
KEG	0.197
KEK	0.273
KEC	1.33
KER	0.143
KEL	0.211
KEE	0.155
KEQ	1.5
KEM	1.77
REE	0.17
REL	0.219
REH	0.167
RER	0.161
REN	0.124
REQ	1.1
REP	0.134
REC	1.31
REK	0.0592
REI	0.141
REG	0.253

Variant	enrichment factor
REA	0.815
RED	0.16
REF	0.695
REM	1.28
DDW	0.1
DDY	0.179
LEQ	1.38
LEK	0.109
LER	0.0959
LEG	0.13
LEN	0.446
LEP	0.119
LEA	0.758
LEE	0.169
LEH	0.266
LEC	0.954
LEF	0.369
LEI	0.273
LEL	0.158
LED	0.27
LEM	1.59
FDY	0.195
HEH	0.193
HES	0.918

Variant	enrichment factor
HEL	0.179
HEQ	1.59
HEM	2.31
HEG	0.341
HEA	0.514
HEN	0.291
HEC	1.26
HEI	0.454
HEE	0.119
HED	0.185
HER	0.159
HEP	0.228
HEF	0.545
HEK	0.141
CDY	0.327
QEP	0.139
QEQ	1.55
QEK	0.0984
QEM	2.09
QEC	0.939
QEF	0.716
QED	0.174
QEE	0.126
QER	0.129

Variant	enrichment factor
QEL	0.182
QEG	0.199
QEN	0.204
QEH	0.101
QEI	0.17
QEA	0.377
MDY	0.174
TDW	0.214
TDY	0.137
YDW	0.197
YDY	0.211
YEP	0.211
YEG	0.285
YEF	0.611
YEE	0.223
YEH	0.144
YEC	0.832
YEQ	2.23
YEN	0.11
YEM	1.89
YED	0.157
YER	0.218
YEA	0.39
YEK	0.175

Variant	enrichment factor
YEL	0.363
YEI	0.365
FEA	0.393
FEM	1.26
FEQ	2.01
FEI	1.3
FEE	0.202
FEF	0.808
FED	0.187
FEL	0.48
FEP	1.29
FEH	0.164
FEG	0.67
FES	0.845
FEN	0.752
FEC	1
FER	0.14
FEK	0.0952
WDY	1.57
WDW	0.779
LDY	0.189
IEI	0.18
IEF	0.295
IED	0.0852

Variant	enrichment factor
IEM	1.26
IEN	0.308
IER	0.128
IEA	0.804
IEC	0.962
IEE	0.149
IEQ	0.867
IEK	0.151
IEH	0.237
IEG	0.123
IEL	0.0943
IEP	0.167
AEI	0.459
AEP	0.0991
AEG	0.338
AEH	0.347
AEA	1.73
AEE	0.165
AEM	1.61
AEL	0.223
AEC	1.19
AEK	0.205
AEF	1.49
AEN	0.561

Variant	enrichment factor
AER	0.105
AEQ	1.66
AED	0.194
CED	0.149
CEN	0.817
CEC	0.642
CEQ	1.61
CEG	0.229
CEI	0.757
CEP	0.27
CEF	1.71
CEH	1.02
CEL	0.957
CEE	0.136
CEA	1.37
CEK	0.133
CEM	1.68
CER	0.193
VDY	0.161
VDW	0.135
HDY	0.214
NDY	0.254
